Assay results as given in PubChem BioAssay AID1030 (National Center for Advancing Translational Sciences (NCATS), 2008).
About 16,000 (7.3%) of roughly 220,000 compounds were called active. The shares of active, inactive and inconclusive entries below differ from those in the screen. Calls come from the whole dose curve; as a rule, active = well fitted inhibition curve with a large enough effect (not every such curve was filed as active); inconclusive = small, poorly fitted or top-dose-only effect, or another doubt; inactive = no such curve, though single readings can be large or run the other way. Potencies beside an inconclusive call are fits to weak or partial responses and may not hold up.

biological target: Aldehyde dehydrogenase 1A1 (Homo sapiens) (UniProt P00352); assay: qHTS Assay for Inhibitors of Aldehyde Dehydrogenase 1 (ALDH1A1); details: Purified ALDH1A1, NADH fluorescence, propionaldehyde substrate; series mostly up to 75.3 µM; activity, negative = inhibition: at the top concentration;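 for activity, negative = inhibition: plate controls were no enzyme wells and a reference inhibitor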
Sequence of UniProt P00352 (P00352 whole entry, looked up): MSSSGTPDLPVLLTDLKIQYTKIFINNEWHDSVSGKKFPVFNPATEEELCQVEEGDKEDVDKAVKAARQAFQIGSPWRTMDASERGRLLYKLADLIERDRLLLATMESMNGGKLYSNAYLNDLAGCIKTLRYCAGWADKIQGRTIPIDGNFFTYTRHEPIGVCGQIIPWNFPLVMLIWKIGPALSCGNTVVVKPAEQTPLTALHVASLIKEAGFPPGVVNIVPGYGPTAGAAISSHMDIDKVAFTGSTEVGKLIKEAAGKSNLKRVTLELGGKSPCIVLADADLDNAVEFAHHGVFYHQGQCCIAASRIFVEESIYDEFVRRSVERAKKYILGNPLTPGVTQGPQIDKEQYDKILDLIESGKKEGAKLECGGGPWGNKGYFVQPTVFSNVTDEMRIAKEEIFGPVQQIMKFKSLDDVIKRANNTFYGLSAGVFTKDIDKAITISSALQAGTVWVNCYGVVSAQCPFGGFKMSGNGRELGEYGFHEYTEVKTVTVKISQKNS
Potency is the fitted concentration of half-maximal effect; tags give direction and shape of the fitted curve.

Potency, active:
CCN=C1NN=C(c2ccc(C)cc2)CS1 25.1 µM
Cc1ccccc1C(=O)c1cccn1CC(=O)N1CCCCCC1 3.98 µM
CC(=O)N(\C=C/C=C/C=C1\Sc2ccccc2C1=O)c1ccccc1 17.8 µM
O=C(NC1(O)C(=O)c2ccccc2C1=O)c1ccccc1 1.41 µM
COc1ccc2cc(C(c3nnnn3CCc3ccccc3)N3CCCC(C)C3)c(=O)[nH]c2c1 (stereo not drawn) 31.6 µM
COc1ccccc1/C=C/C1C(C(=O)OCC(C)C)=C(C)N=C2SCCC(=O)N21 (stereo not drawn) 22.4 µM
COc1cc(/C=N/NC(=O)c2cccc(NC(=O)c3ccccc3Cl)c2)ccc1O 12.6 µM
C=CCn1c(N)cc(=O)nc1SCC(=O)N1CCN(c2ccc(F)cc2)CC1 14.1 µM
COC(=O)C1=C(C)NC(=S)NC1c1sccc1C (stereo not drawn) 11.2 µM

Potency, inconclusive:
COCCn1c(=NC(=O)CSCC(=O)Nc2cc(C)on2)sc2cc(C(=O)OC)ccc21 25.1 µM [inhibitor, single point]
COc1cccc(OCc2cc(C3Nc4ccccc4C(=O)N3Cc3ccco3)ccc2OC)c1 (stereo not drawn) 28.2 µM [inhibitor, partial curve]
COc1cccc(/C=C/C(=O)OCC(=O)c2cc(C)n(CC3CCCO3)c2C)c1OC (stereo not drawn) 44.7 µM [inhibitor, single point]
O=S(=O)(c1ccc(OCC(O)CN2CCN(c3ccccc3Cl)CC2)cc1)N1CCOCC1 (stereo not drawn) 25.1 µM [inhibitor, single point]
CC1=C(C(=O)OCc2ccccc2)C(c2cccnc2)n2nnnc2N1 (stereo not drawn) 25.1 µM [inhibitor, single point]
Cc1ccc(-c2nc(NC(=O)CSc3nnnn3-c3ccccc3)ns2)cc1 3.55 µM [inhibitor, partial curve, poor fit]
COc1ccc(/C=C/C(=O)O)cc1S(=O)(=O)N1CCc2ccccc2C1 7.08 µM [inhibitor, single point]
O=C(CCCn1c(=S)[nH]c2ccccc2c1=O)NC1CCCC1 39.8 µM [inhibitor, single point]
Cc1ccnc(NS(=O)(=O)c2ccc(NC(=O)c3ccc4c(c3)OCCO4)cc2)n1 39.8 µM [inhibitor, single point]
CC(=O)Nc1ccc(C(=O)CSc2nnc(-c3ccc(O)cc3)n2CC2CCCO2)cc1 (stereo not drawn) 39.8 µM [inhibitor, single point]
COc1cc2oc(-c3ccccc3)cc(=O)c2cc1OC 31.6 µM [inhibitor, single point]
COCCCN=Cc1c(C)[nH]n(-c2ccc(Br)cc2Br)c1=O 1 µM [inhibitor, single point]
CN1CCc2c(sc3c2C(=O)NC(c2ccc(-c4ccc(Cl)cc4)o2)N3)C1 (stereo not drawn) 31.6 µM [inhibitor, single point]
CCNc1nc(N2CCCCC2)nc(-n2nnc(C(=O)OCC)c2C)n1 28.2 µM [inhibitor, partial curve]
CC(C)COP(=O)(c1ccc(N(C)C)cc1)C(O)c1ccccn1 (stereo not drawn) 35.5 µM [inhibitor, single point]
CNc1nc(C)cc(C)c1S(=O)(=O)c1ccc(Cl)cc1 28.2 µM [inhibitor, partial curve]
COC(=O)c1sc(NC(=O)c2ccco2)nc1C 35.5 µM [inhibitor, single point]
CS(=O)(=O)N(CC(=O)N1CCN(c2ccc(F)cc2)CC1)c1cccc(Cl)c1 20 µM [inhibitor, single point]
CCOC(=O)Cn1cc(/C=N/N2C(=O)C3C4C=CC(C4)C3C2=O)c2ccccc21 (stereo not drawn) 25.1 µM [inhibitor, partial curve]
COc1ccc(C2CC(=O)C3=C(C2)Nc2ncnn2C3c2ccccc2)cc1 (stereo not drawn) 14.1 µM [inhibitor, partial curve]
O=C(Nc1ccc2c(c1)OCCO2)C1CCN(S(=O)(=O)c2cccc3nsnc23)CC1 2 µM [inhibitor, full curve, poor fit]
Cc1ccc(/C=N/n2c(C3CCCCC3)n[nH]c2=S)o1 39.8 µM [inhibitor, single point]
CCc1ccc(NC(=S)NNC(=O)c2ccccc2OC(F)F)cc1 39.8 µM [inhibitor, single point]
COc1cc2nc(N3CCN(C(=O)[C@@H]4CCCO4)CC3)nc(N)c2cc1OC 10 µM [inhibitor, partial curve]
Cc1sc2nc(-c3ccco3)oc(=O)c2c1C 39.8 µM [inhibitor, single point]
CCc1sc(N2C(=O)C3C4CCC(C4=C(C)C)C3C2=O)nc1-c1ccccc1 (stereo not drawn) 39.8 µM [inhibitor, single point]
CC(Oc1ccc2ccccc2c1)C(=O)NNC(=S)NC(=O)c1ccco1 (stereo not drawn) 31.6 µM [inhibitor, single point]
CN(C)C(=O)c1ccc(-c2cncnc2N(C)Cc2ccco2)cc1 25.1 µM [inhibitor, single point]
COc1cc(NC(=O)COC(=O)/C=C/c2ccc(O)c(OC)c2)cc(OC)c1 39.8 µM [inhibitor, single point]
Oc1ccc(-c2cccc(-c3ccc(O)cc3)n2)cc1 35.5 µM [inhibitor, single point]
COc1cccc(-n2nnnc2SCC(=O)NCc2ccc3c(c2)OCO3)c1 12.6 µM [inhibitor, partial curve]
CC(C)OCCCn1c(=N)c(C(N)=S)cc2c(=O)n3ccccc3nc21 28.2 µM [inhibitor, partial curve]
O=C(c1cccc([N+](=O)[O-])c1)N1CCN(c2ccc(Cl)cc2)CC1 25.1 µM [inhibitor, single point]
Cc1cc(C(=O)CSc2nnc(-c3cccs3)n2Cc2ccccc2)c(C)n1C 31.6 µM [inhibitor, single point]
Cn1c(=O)c2ncn(CC(=O)Nc3cccc(-c4nc5ccccc5s4)c3)c2n(C)c1=O 22.4 µM [inhibitor, single point]
CC(=O)N(CCC(c1ccco1)C(C)C)Cc1ccc(Cl)cc1 (stereo not drawn) 22.4 µM [inhibitor, partial curve]
COCCCn1c(SCC(=O)N2CCCC(C)C2)nnc1-c1ccco1 (stereo not drawn) 39.8 µM [inhibitor, single point]
O=C1C(=O)N(CC2CCCO2)C(c2ccco2)/C1=C(/O)c1ccc(F)cc1 (stereo not drawn) 39.8 µM [inhibitor, single point]
Cc1ccccc1OCC(=O)N/N=C/c1cn(Cc2ccccc2)c2ccccc12 39.8 µM [inhibitor, single point]
COc1ccc(C(=O)CSc2nnc(-c3ccoc3C)n2CC2CCCO2)cc1 (stereo not drawn) 39.8 µM [inhibitor, single point]
Cc1cccc(-n2nnnc2SCC(=O)N(CC(C)C)c2c(N)n(CC(C)C)c(=O)[nH]c2=O)c1 28.2 µM [inhibitor, single point]
COCC(=O)Nc1sc2c(c1C(=O)OC)CCCC2 25.1 µM [inhibitor, partial curve]
CCOC(=O)/C=c1\s/c(=C\c2ccc3cc(OC)ccc3c2)c(=O)n1CC(=O)NCC1CCCO1 (stereo not drawn) 39.8 µM [inhibitor, single point]
O=C(O)Cc1c[nH]c2cccc(O)c12 44.7 µM [inhibitor, single point]
COc1ccccc1CNC(=O)c1cn(C)c2ccc(S(=O)(=O)N3CCCC3)cc2c1=O 1.26 µM [inhibitor, full curve, poor fit]
COc1ccc(-c2[nH]c(-c3ccc(C(=O)O)cc3)nc2-c2ccccc2)cc1 11.2 µM [inhibitor, partial curve]
Cc1ccc(OCCN2C(=O)CSC2=O)cc1 25.1 µM [inhibitor, single point]

activity, negative = inhibition, inactive:
CCOc1ccc(C2C(C#N)=C(N)Oc3cc(C)n(CCN(C)C)c(=O)c32)cc1OCC (stereo not drawn) 9.56%
Oc1c(Cl)cc(Cl)cc1/C=N/c1nc(-c2ccc(Cl)cc2)cs1 9.95%
CC(=O)OCC(=O)Nc1ccc(Cl)cc1Cl 0.618%
CCOC(=O)c1cc(CC)sc1NC(=O)CSc1nc2ccccc2c(=O)n1Cc1ccco1 3.46%
Cc1noc(C)c1S(=O)(=O)Nc1ccc(C(=O)N2CCN(c3cccc(Cl)c3)CC2)cc1 9.75%
O=C(CSc1ccc(-c2ccccc2)nn1)N1CCCc2ccccc21 -5.82%
S=c1[nH]nc(-c2ccco2)n1-c1ccc(Cl)cc1 -7.47%
COc1ccc(NC(=O)N2CCCC3(CCN(S(C)(=O)=O)CC3)C2)cc1 0.645%
COc1ccc(N2CCN(C(=O)c3ccc(N(C)S(=O)(=O)c4ccc(C)cc4)cc3)CC2)cc1 5.86%
Cc1csc(NC(=O)C2CCCN(S(=O)(=O)c3ccc4c(c3)oc(=O)n4C)C2)n1 (stereo not drawn) -14.7%
CCOC1=NS(=O)(=O)c2ccccc21 10.9%
Cc1ccc(S(=O)(=O)/N=C(/c2ccccc2)N2CCOCC2)c(C)c1 1.66%
